Laboratory results taken from US20230346784A1 (priority 2020, published 2023).

Legend:
[1] = human, in vivo

Row | Compound | liver enzymes elevation observed in the clinical program [1] | elevation of serum Bb concentration (serum factor Bb)
1 | CC(=O)c1nn(CC(=O)N2C[C@H](F)C[C@H]2C(=O)Nc2cccc(Br)n2)c2ccc(-c3cnc(C)nc3)cc12 [Compound 1, danicopan] | transient nature of liver enzymes elevation | –
2 | CC(=O)c1nn(CC(=O)N2[C@H]3C[C@]4(C[C@@H]24)Cn2cc(nn2)COCc2ccc(Br)nc2NC3=O)c2ccc(-c3cnc(C)nc3)cc12 [Compound 2] | – | inhibited
